The assay deals with M. smegmatis resistant mutants. In words: microbe, parasite or virus in culture. The class given is cell-based. The note with it: for MIC: Mycolicibacterium smegmatis, mean ± SEM.
[1] abbreviates: mutant resistant to Compound 1, isolate 1.
The mark [2] stands for this setting: mutant resistant to Compound 1, isolate 3.
The mark [3] stands for this setting: mutant resistant to Compound 2, isolate 1.
Where [4] appears, read: mutant resistant to Compound 2, isolate 2.

≈ marks a conversion by molar mass, not a printed value.

`CN1CCC(O)(c2ccccc2)C(C(=O)c2ccccc2)C1` (centres unmarked) [Compound 1]: the MIC reads like this: under setting [1], 375 ± 62.5 µg/mL (≈ 1270 µM); under setting [2], 375 ± 62.5 µg/mL (≈ 1270 µM); under setting [3], 172 ± 38.2 µg/mL (≈ 581 µM); under setting [4], 266 ± 46.9 µg/mL (≈ 899 µM).
For the molecule `CN(CCC(=O)c1ccccc1)CCC(=O)c1ccccc1` [Compound 2, 3,3′-(methylazanediyl)bis(1-phenylpropan-1-one)], the MIC by setting is: under setting [1], 156 µg/mL (≈ 528 µM); under setting [2], 375 ± 62.5 µg/mL (≈ 1270 µM); under setting [3], 375 ± 62.5 µg/mL (≈ 1270 µM); under setting [4], 281 ± 31.3 µg/mL (≈ 952 µM).
For `CO[C@H]1/C=C/O[C@@]2(C)Oc3c(C)c(O)c4c(O)c(c(/C=N/N5CCN(C)CC5)c(O)c4c3C2=O)NC(=O)/C(C)=C\C=C\[C@H](C)[C@H](O)[C@@H](C)[C@@H](O)[C@@H](C)[C@H](OC(C)=O)[C@@H]1C` [Rifampicin, reference compound], the “susceptibility of the resistant mutants” value is given as “fully susceptible”. Moreover, under setting [1], the MIC worked out at 5 µg/mL (≈ 6.08 µM). Moreover, under setting [2], the MIC turned out to be 10 µg/mL (≈ 12.2 µM). The molecule further had an MIC under setting [3] of 10 µg/mL (≈ 12.2 µM).
With `NNC(=O)c1ccncc1` [isoniazid], the “susceptibility of the resistant mutants” value is listed as “fully susceptible”. Further, the MIC under setting [1] was found to be 25 µg/mL (≈ 182 µM).

The record behind these values is article PMC5481654, “Identification of the anti-mycobacterial functional properties of piperidinol derivatives” (British journal of pharmacology, 2017).
